Data on 20 molecules can be found in paper PMC9911399, “Two distinct binding modes provide the RNA-binding protein RbFox with extraordinary sequence specificity”.

Sequences and labels used below:
T1: RBFOX1 RRM RbFoxmut (Fox-RRM*) (Homo sapiens, UniProt Q9NWB1 109-208, R118D;E147R;N151S;E152T)
T1 sequence: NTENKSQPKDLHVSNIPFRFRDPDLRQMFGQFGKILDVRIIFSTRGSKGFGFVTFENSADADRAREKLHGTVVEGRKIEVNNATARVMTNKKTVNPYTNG

B1: UACGACA (DNA:RNA)
RNA: GGGAGACCGGAAUUCAGAUUGUCCUACGACAUUAAAUCCCGUCGUAGCCACCA
DNA 1: CAATCTGAATTCCGGTCTCCC
DNA 2: TGGTGGCTACGACGGGATT
B2: GAGUGAC (DNA:RNA)
RNA: B1 RNA with U25G, C27G, G28U, A29G, C30A, A31C
DNA 1: CAATCTGAATTCCGGTCTCCC
DNA 2: TGGTGGCTACGACGGGATT
B3: AGGUCAU (DNA:RNA)
RNA: GGGAGACCGGAAUUCAGAUUGUCCAGGUCAUUUAAAUCCCGUCGUAGCCACCA
DNA 1: CAATCTGAATTCCGGTCTCCC
DNA 2: TGGTGGCTACGACGGGATT
B4: CGGUAGC (DNA:RNA)
RNA: B3 RNA with A25C, C29A, A30G, U31C
DNA 1: CAATCTGAATTCCGGTCTCCC
DNA 2: TGGTGGCTACGACGGGATT
B5: GGAUGAU (DNA:RNA)
RNA: B3 RNA with A25G, G27A, C29G
DNA 1: CAATCTGAATTCCGGTCTCCC
DNA 2: TGGTGGCTACGACGGGATT
B6: GACUACG (DNA:RNA)
RNA: B1 RNA with U25G, G28U, A31G
DNA 1: CAATCTGAATTCCGGTCTCCC
DNA 2: TGGTGGCTACGACGGGATT
B7: GUCGUCG (DNA:RNA)
RNA: B1 RNA with U25G, A26U, A29U, A31G
DNA 1: CAATCTGAATTCCGGTCTCCC
DNA 2: TGGTGGCTACGACGGGATT
B8: ACACUUA (DNA:RNA)
RNA: B3 RNA with G26C, G27A, U28C, C29U, A30U, U31A
DNA 1: CAATCTGAATTCCGGTCTCCC
DNA 2: TGGTGGCTACGACGGGATT
B9: CUGUGGA (DNA:RNA)
RNA: B3 RNA with A25C, G26U, C29G, A30G, U31A
DNA 1: CAATCTGAATTCCGGTCTCCC
DNA 2: TGGTGGCTACGACGGGATT
B10: UUUAUGA (DNA:RNA)
RNA: B1 RNA with A26U, C27U, G28A, A29U, C30G
DNA 1: CAATCTGAATTCCGGTCTCCC
DNA 2: TGGTGGCTACGACGGGATT
B11: AUCUAGC (DNA:RNA)
RNA: B3 RNA with G26U, G27C, C29A, A30G, U31C
DNA 1: CAATCTGAATTCCGGTCTCCC
DNA 2: TGGTGGCTACGACGGGATT
B12: AAGAAGC (DNA:RNA)
RNA: B3 RNA with G26A, U28A, C29A, A30G, U31C
DNA 1: CAATCTGAATTCCGGTCTCCC
DNA 2: TGGTGGCTACGACGGGATT
B13: ACUAAAA (DNA:RNA)
RNA: B3 RNA with G26C, G27U, U28A, C29A, U31A
DNA 1: CAATCTGAATTCCGGTCTCCC
DNA 2: TGGTGGCTACGACGGGATT
B14: GCGGAGC (DNA:RNA)
RNA: B1 RNA with U25G, A26C, C27G, C30G, A31C
DNA 1: CAATCTGAATTCCGGTCTCCC
DNA 2: TGGTGGCTACGACGGGATT
B15: AUCGGUA (DNA:RNA)
RNA: B1 RNA with U25A, A26U, A29G, C30U
DNA 1: CAATCTGAATTCCGGTCTCCC
DNA 2: TGGTGGCTACGACGGGATT
B16: UCAUUAC (DNA:RNA)
RNA: B3 RNA with A25U, G26C, G27A, C29U, U31C
DNA 1: CAATCTGAATTCCGGTCTCCC
DNA 2: TGGTGGCTACGACGGGATT
B17: CACCGAC (DNA:RNA)
RNA: B1 RNA with U25C, G28C, A29G, C30A, A31C
DNA 1: CAATCTGAATTCCGGTCTCCC
DNA 2: TGGTGGCTACGACGGGATT
B18: UAGGACA (DNA:RNA)
RNA: B1 RNA with C27G
DNA 1: CAATCTGAATTCCGGTCTCCC
DNA 2: TGGTGGCTACGACGGGATT
B19: UAUAUAG (DNA:RNA)
RNA: B1 RNA with C27U, G28A, A29U, C30A, A31G
DNA 1: CAATCTGAATTCCGGTCTCCC
DNA 2: TGGTGGCTACGACGGGATT
B20: AGUAGUG (DNA:RNA)
RNA: B3 RNA with G27U, U28A, C29G, A30U, U31G
DNA 1: CAATCTGAATTCCGGTCTCCC
DNA 2: TGGTGGCTACGACGGGATT

Where a chain is given by its changes, count along the chain named. The list shows a part of the results.

This assay deals with T1, RBFOX1 RRM RbFoxmut (Fox-RRM*). Kind of assay: EMSA; HiTS-Eq, 1 nM pool, 10 min; buffer printed only for the single-RNA assays: 10 mM Tris pH 7.5, 150 mM NaCl, 3.4 mM EDTA, 0.001% NP-40, 30 C. The note with it: tags: His6 N-terminal (pET28a); label: 5' 32P. In a few lines:
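A pool of RNA with 7 randomized nucleotides, 5′-radiolabelled and with DNA-annealed flanks, was equilibrated at 1 nM for 10 min in 50 µL with purified RbFox RRM, wild type or mutant, across increasing protein concentrations. Free RNA was separated by 8% native PAGE, excised, reverse-transcribed, barcoded by PCR and sequenced. Relative association constants were obtained from read-count changes of each RNA species versus the control reaction and normalised to the cognate motif.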
(In general: A gel shift assay detects complexes by their altered migration in electrophoresis.)
Take B1: the binding signal was 0.0569 KA relative to UGCAUGU.

As to B2, the binding signal was 0.0683 KA relative to UGCAUGU.

As for B3, the binding signal was 0.0811 KA relative to UGCAUGU.

As to B4, the binding signal is 0.0916 KA relative to UGCAUGU.

Consider B5, for which the binding signal is 0.208 KA relative to UGCAUGU.

Take B6: the binding signal was 0.119 KA relative to UGCAUGU.

As to B7, the binding signal was 0.15 KA relative to UGCAUGU.

For B8, the binding signal is 0.129 KA relative to UGCAUGU.

Regarding B9, the binding signal was 0.0904 KA relative to UGCAUGU.

With B10, the binding signal was 0.104 KA relative to UGCAUGU.

Turning to B11, the binding signal was 0.146 KA relative to UGCAUGU.

With B12, the binding signal was 0.0834 KA relative to UGCAUGU.

On to B13, for which the binding signal was 0.139 KA relative to UGCAUGU.

Turning to B14, the binding signal is 0.094 KA relative to UGCAUGU.

Turning to B15, the binding signal is 0.157 KA relative to UGCAUGU.

For the molecule B16, the binding signal was 0.104 KA relative to UGCAUGU.

Turning to B17, the binding signal was 0.0833 KA relative to UGCAUGU.

For the molecule B18, the binding signal was 0.0582 KA relative to UGCAUGU.

Turning to B19, the binding signal is 0.0914 KA relative to UGCAUGU.

For the molecule B20, the binding signal is 0.2 KA relative to UGCAUGU.
